Reference: patent US20250136618A1, “ANTIBIOTIC PYRAZINOTHIAZINE DERIVATIVES AND PROCESS OF PREPARATION THEREOF” (Bugworks Research India PVT Ltd, priority 2021, published 2025)
Read-outs that look alike come from different tables or passages of the source.

Key:
E. coli DNA gyrase = E. coli DNA gyrase (Escherichia coli (strain K12), UniProt P0AES4+P0AES6); assay: biochemical
Method: E. coli gyrase supercoiling and its inhibition was assayed using a kit procured from Inpiralis (K0001) and the protocol (PMID: 2172086) was adapted with necessary modifications. The compounds to be tested were incubated for 10 minutes with 2.5 nM of E. coli DNA gyrase in a 30 μl reaction volume and 3.2% DMSO. The reactions were then started with the addition of 60 ng relaxed pBR322 plasmid DNA and continued for 45 min at 37° C. The reaction mixture contained 35 mM Tris-HCl (pH 7.5), 24 mM KCl, 1.8 mM spermidine, 4 mM MgCl2, 2 mM DTT, 6.5% (w/v) glycerol, 0.1 mg/mL BSA, and 1 mM ATP. The reaction was then stopped by addition of 0.75 μL of Proteinase K (20 mg/mL) and 3 μL of 2% SDS and further incubated at 37° C. for 30 min. This was followed by the addition of 4 μL of STEB (40% (w/v) sucrose, 100 mM Tris-HCl (pH 8), 1 mM EDTA, 0.5 mg/ml Bromophenol Blue), and the supercoiled/relaxed forms of plasmid DNA were separated by agarose gel electrophoresis. The 1% agarose gels were run for 3 h at 4V/cm in 1×TAE (40 mM Tris, 20 mM Acetic acid, 1 mM EDTA). To visualize the DNA, the gels were stained for 10 min with 0.7 μg/mL ethidium bromide and excess dye was removed by several washes with water. IC50 values were determined by quantifying the supercoiled and relaxed DNA in each of the reactions from a gel image by a densitometric method using the Quantity One Software (Bio-rad).

E. coli topoisomerase IV = E. coli topoisomerase IV (Escherichia coli (strain K12), UniProt P0AFI2+P20083); assay: biochemical
Method: E. coli topoisomerase IV decatenation activity and its inhibition was assayed using a kit procured from Inpiralis (D4002) and the kit protocol was adapted with necessary modifications similar to the gyrase supercoiling assays. The compounds 1, 2, 3 and 4 were incubated individually for 10 minutes with 5 nM of E. coli topoisomerase IV in a 30 μl reaction volume and 3.2% DMSO. The reactions were started with the addition of 60 ng of kDNA and continued for 40 min at 37° C. The final reaction mixture contained 40 mM Tris-HCl (pH 7.6), 100 mM potassium glutamate, 10 mM magnesium acetate, 10 mM DTT, 1 mM ATP, and 50 μg/ml albumin. The reactions were stopped by addition of 0.75 μL of Proteinase K (20 mg/mL) and 3 μL of 2% SDS and further incubated at 37° C. for 30 min. This was followed by the addition of 4 μL of STEB (40% (w/v) sucrose, 100 mM Tris-HCl pH8, 1 mM EDTA, 0.5 mg/ml Bromophenol Blue) and the kDNA/minicircles forms were separated by agarose gel electrophoresis. The 1% agarose gels were run for 3 h at 4V/cm in 1×TAE (40 mM Tris, 20 mM Acetic acid, 1 mM EDTA). To visualize the DNA, the gels were stained for 10 min with 0.7 μg/mL ethidium bromide and excess dye was removed by several washes with water. IC50 values were determined by quantifying the Kinetoplast DNA band inside the gel well and decatenated minicircles that migrate into the gel in each of the reactions from a gel image by a densitometric method using the Quantity One Software (Bio-rad).

[1] = read-out: E. coli DNA Gyrase IC50, gel based supercoiling assay
[2] = read-out: E. coli Topo IV IC50, gel based decatenation assay

Compound	IC50 (E. coli DNA gyrase; [1]) [nM]	IC50 (E. coli topoisomerase IV; [2]) [nM]	further results
[2H]C([2H])([2H])N1C(=O)CNc2ccc(OCCNCC3CN(c4cnc5c(n4)NC(=O)CS5)C(=O)O3)nc21 (stereo in doubt) [Compound 9, (R)-5-(((2-((4-(methyl-d3)-3-oxo-1,2,3,4-tetrahydropyrido[2,3-b]pyrazin-6-yl)oxy)ethyl)amino)methyl)-3-(3-oxo-3,4-dihydro-2H-pyrazino[2,3-b][1,4]thiazin-6-yl) oxazolidin-2-one]	170	91	
Cn1c(=O)cnc2ccc(OCCNC[C@H]3CN(c4cnc5c(n4)NC(=O)CS5)C(=O)O3)nc21 [Compound 1, (S)-5-(((2-((4-Methyl-3-oxo-3,4-dihydropyrido[2,3-b]pyrazin-6-yl)oxy)ethyl)amino)methyl)-3-(3-oxo-3,4-dihydro-2H-pyrazino[2,3-b][1,4]thiazin-6-yl)oxazolidin-2-one, reference compound]	25	50	
Cn1c(=O)ccc2ncc(OCCNC[C@H]3CN(c4cnc5c(n4)NC(=O)CS5)C(=O)O3)nc21 [Compound 2, (S)-5-(((2-((5-Methyl-6-oxo-5,6-dihydropyrido[2,3-b]pyrazin-3-yl)oxy)ethyl)amino)methyl)-3-(3-oxo-3,4-dihydro-2H-pyrazino[2,3-b][1,4]thiazin-6-yl)oxazolidin-2-one, reference compound]			IC50 (E. coli DNA gyrase): 13 nM; IC50 (E. coli topoisomerase IV): 45 nM
Cn1c(=O)cnc2ccc(OCCNC[C@@H]3CN(c4cnc5c(n4)NC(=O)CS5)C(=O)O3)nc21 [Compound 3, (R)-5-(((2-((4-methyl-3-oxo-3,4-dihydropyrido[2,3-b]pyrazin-6-yl)oxy)ethyl)amino)methyl)-3-(3-oxo-3,4-dihydro-2H-pyrazino[2,3-b][1,4]thiazin-6-yl)oxazolidin-2-one]	30	50	
Cn1c(=O)ccc2ncc(OCCNC[C@@H]3CN(c4cnc5c(n4)NC(=O)CS5)C(=O)O3)nc21 [Compound 4, (R)-5-(((2-((5-methyl-6-oxo-5,6-dihydropyrido[2,3-b]pyrazin-3-yl)oxy)ethyl)amino)methyl)-3-(3-oxo-3,4-dihydro-2H-pyrazino[2,3-b][1,4]thiazin-6-yl)oxazolidin-2-one]			IC50 (E. coli DNA gyrase): 25 nM; IC50 (E. coli topoisomerase IV): 44 nM
CN1C(=O)CNc2ccc(OCCNC[C@@H]3CN(c4cnc5c(n4)NC(=O)CS5)C(=O)O3)nc21 [Compound 5, (R)-5-(((2-((4-methyl-3-oxo-1,2,3,4-tetrahydropyrido[2,3-b]pyrazin-6-yl)oxy)ethyl)amino)methyl)-3-(3-oxo-3,4-dihydro-2H-pyrazino[2,3-b][1,4]thiazin-6-yl)oxazolidin-2-one]	320	110	
CN1C(=O)CNc2ccc(OCCNC[C@H]3CN(c4cnc5c(n4)NC(=O)CS5)C(=O)O3)nc21 [Compound 6, (S)-5-(((2-((4-methyl-3-oxo-1,2,3,4-tetrahydropyrido[2,3-b]pyrazin-6-yl)oxy)ethyl)amino)methyl)-3-(3-oxo-3,4-dihydro-2H-pyrazino[2,3-b][1,4]thiazin-6-yl)oxazolidin-2-one]	120	130	
CN1C(=O)CNc2cc(F)c(OCCNC[C@@H]3CN(c4cnc5c(n4)NC(=O)CS5)C(=O)O3)nc21 [Compound 7, (R)-5-(((2-((7-fluoro-4-methyl-3-oxo-1,2,3,4-tetrahydropyrido[2,3-b]pyrazin-6-yl)oxy)ethyl)amino)methyl)-3-(3-oxo-3,4-dihydro-2H-pyrazino[2,3-b][1,4]thiazin-6-yl)oxazolidin-2-one]	67		
CN1C(=O)CNc2cc(F)c(OCCNC[C@H]3CN(c4cnc5c(n4)NC(=O)CS5)C(=O)O3)nc21 [Compound 8, (S)-5-(((2-((7-fluoro-4-methyl-3-oxo-1,2,3,4-tetrahydropyrido [2,3-b]pyrazin-6-yl)oxy)ethyl)amino)methyl)-3-(3-oxo-3,4-dihydro-2H-pyrazino[2,3-b][1,4]thiazin-6-yl)oxazolidin-2-one]	95		
(S)-5-(((2-((4-Methyl-d3)-3-oxo-1,2,3,4-tetrahydropyrido[2,3-b]pyrazin-6-yl)oxy)ethyl)amino)methyl)-3-(3-oxo-3,4-dihydro-2H-pyrazino[2,3-b][1,4]thiazin-6-yl)oxazolidin-2-one [Compound 10]			IC50 (E. coli DNA gyrase; read-out: E. coli DNA Gyrase IC50): 70 nM; IC50 (E. coli topoisomerase IV; read-out: E. coli Topo IV IC50): 78 nM
